Here are results for 42 compounds from article PMC4336329 (PLoS ONE, 2015).

Out of some 310,000 compounds screened, about 14,000 (4.5%) showed an effect of 50% or more. The effect is printed as a negative number. This is one part of the list.
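Further: peak tail current of the secondary pulse compared with the same well before compound.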

The target of this assay is human ether-à-go-go-related gene (hERG) potassium channel (human, UniProt Q12809). Briefly: primary screen, population patch clamp on CHO cells stably expressing hERG.
human ether-à-go-go-related gene (hERG) potassium channel, sequence (Q12809 whole entry, looked up): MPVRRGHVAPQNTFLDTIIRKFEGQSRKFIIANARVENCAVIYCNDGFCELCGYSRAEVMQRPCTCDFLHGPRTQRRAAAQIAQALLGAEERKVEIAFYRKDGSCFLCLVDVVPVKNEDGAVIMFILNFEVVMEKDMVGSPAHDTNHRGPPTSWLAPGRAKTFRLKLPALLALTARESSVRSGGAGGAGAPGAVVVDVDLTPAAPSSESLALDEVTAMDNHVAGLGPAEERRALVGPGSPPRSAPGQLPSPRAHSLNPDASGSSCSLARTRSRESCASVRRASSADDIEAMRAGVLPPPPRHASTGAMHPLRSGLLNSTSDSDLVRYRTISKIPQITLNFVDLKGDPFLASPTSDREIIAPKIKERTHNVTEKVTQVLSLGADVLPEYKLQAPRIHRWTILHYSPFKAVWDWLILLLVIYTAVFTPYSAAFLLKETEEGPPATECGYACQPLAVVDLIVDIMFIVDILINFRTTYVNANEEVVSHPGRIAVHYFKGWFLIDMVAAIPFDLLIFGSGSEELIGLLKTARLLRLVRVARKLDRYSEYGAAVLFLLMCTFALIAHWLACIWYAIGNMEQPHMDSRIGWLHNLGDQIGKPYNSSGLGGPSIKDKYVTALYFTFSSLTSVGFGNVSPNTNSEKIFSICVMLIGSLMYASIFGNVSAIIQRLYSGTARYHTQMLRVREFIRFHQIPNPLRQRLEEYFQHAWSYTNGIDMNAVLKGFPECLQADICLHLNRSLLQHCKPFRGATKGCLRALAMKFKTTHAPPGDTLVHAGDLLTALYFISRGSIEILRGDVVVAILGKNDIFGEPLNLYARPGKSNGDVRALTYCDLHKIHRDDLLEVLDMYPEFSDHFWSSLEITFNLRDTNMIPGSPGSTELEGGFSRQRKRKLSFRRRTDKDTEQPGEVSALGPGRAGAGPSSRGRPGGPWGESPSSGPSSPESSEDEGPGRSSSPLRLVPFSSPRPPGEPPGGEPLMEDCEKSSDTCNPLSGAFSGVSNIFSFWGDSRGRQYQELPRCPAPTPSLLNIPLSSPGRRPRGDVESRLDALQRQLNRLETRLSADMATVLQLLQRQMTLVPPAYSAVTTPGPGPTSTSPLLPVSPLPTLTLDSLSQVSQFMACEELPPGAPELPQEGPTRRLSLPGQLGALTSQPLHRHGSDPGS
Consider `COc1ccccc1OCCC(=O)Nc1cccc(S(=O)(=O)N2CCOCC2)c1`, for which the “hERG current change (%, negative = inhibition) at 10uM” value was found to be 8.91%.

As to `CN(C)N(Cc1ccccc1)C(=O)C(O)(c1ccccc1)c1ccccc1`, the “hERG current change (%, negative = inhibition) at 10uM” value amounted to 11.7%.

For the compound `O=[N+]([O-])c1ccc(Sc2nccn2Cc2ccccc2)c([N+](=O)[O-])c1`, the “hERG current change (%, negative = inhibition) at 10uM” value is reported as -57.9%.

Regarding `COc1ccc2[nH]c(=O)c(CN(CC3CCCO3)S(=O)(=O)c3ccccc3)cc2c1` (stereo not drawn), the “hERG current change (%, negative = inhibition) at 10uM” value came out at 16.7%.

`COc1cc(OC)cc(-c2nnc(SCC(=O)N3CCCCC3)o2)c1`: the “hERG current change (%, negative = inhibition) at 10uM” value was -11.2%.

Take `Cn1c(SCc2ccccc2Cl)nc(C(F)(F)F)cc1=O`: the “hERG current change (%, negative = inhibition) at 10uM” value came out at 1.65%.

`Cc1cc(-n2c(C)cc(C(=O)COc3cc(F)ccc3[N+](=O)[O-])c2C)no1`: the “hERG current change (%, negative = inhibition) at 10uM” value is 4.39%.

For the compound `COc1ccc(CCn2nnc(-c3ccc(NC(C)=O)c(Cl)c3)n2)cc1`, the “hERG current change (%, negative = inhibition) at 10uM” value was found to be 17.1%.

`CCC1(CC)C(=O)C2=C3C1[C@H](C(=O)OC)CC(C(=O)OC)C[C@H]3[C@H]1C(=O)N(c3ccccc3)C(=O)[C@H]1[C@H]2C` (stereo partly drawn): the “hERG current change (%, negative = inhibition) at 10uM” value is on record as 2.34%.

For the compound `CCOc1cc(S(=O)(=O)NCc2cccs2)ccc1Cl`, the “hERG current change (%, negative = inhibition) at 10uM” value was determined as 0.116%.

`CC[C@H](C)[C@H](NS(=O)(=O)c1ccc(C)cc1)C(=O)N1CCC(C(=O)N[C@H](C(=O)O)C(C)C)CC1`: the “hERG current change (%, negative = inhibition) at 10uM” value is given as -6.62%.

On to `Cc1ccc(-n2cc(CNC(C)Cc3cnccn3)c(-c3cccc(C)c3)n2)cc1` (stereo not drawn), for which the “hERG current change (%, negative = inhibition) at 10uM” value was -73.8%.

Regarding `COC(=O)C1=C(c2ccc(S(C)(=O)=O)cc2)C[C@@H]2CC[C@H]1N2C(=O)NC1CC1`, the “hERG current change (%, negative = inhibition) at 10uM” value amounted to 17%.

`O=C(Nc1ccc(N2CCN(C(=O)c3ccccc3)CC2)c(Cl)c1)c1ccco1`: the “hERG current change (%, negative = inhibition) at 10uM” value was -29.5%.

As for `Cc1ccoc1C(=O)N1CCCCC1C(=O)O` (stereo not drawn), the “hERG current change (%, negative = inhibition) at 10uM” value was 18.2%.

Turning to `CCN(CC)C(=O)c1sc(NC(=O)c2c(OC)cccc2OC)c(C#N)c1C`, the “hERG current change (%, negative = inhibition) at 10uM” value is on record as 19.1%.

With `Cc1ccc(S(=O)(=O)NC(C(=O)N2CCOCCOCCOCCOCC2)c2ccccc2)cc1` (stereo not drawn), the “hERG current change (%, negative = inhibition) at 10uM” value is -7.3%.

For `CCOC(=O)c1cnn(-c2ncnc3c2cnn3C)c1N`, the “hERG current change (%, negative = inhibition) at 10uM” value is on record as 2.99%.

Turning to `CCOC(=O)/C(=N\Nc1cc(Cl)ccc1Cl)N1CCN(CC)CC1`, the “hERG current change (%, negative = inhibition) at 10uM” value is given as -17.8%.

On to `O=C(Nc1ccc(S(=O)(=O)N2CCOCC2)cc1)c1cc(-c2cc(Cl)ccc2O)n[nH]1`, for which the “hERG current change (%, negative = inhibition) at 10uM” value came to 4.71%.

On to `O=c1[nH]nnc2c1sc1nc(N3CCOCC3)c3c(c12)CCCC3`, for which the “hERG current change (%, negative = inhibition) at 10uM” value is given as -12.4%.

On to `Nc1cccc(NC(=O)c2cccs2)c1`, for which the “hERG current change (%, negative = inhibition) at 10uM” value was found to be 1.7%.

Regarding `Cc1ccc(S(=O)(=O)/N=C2\C=C(Nc3cccc(C(=O)O)c3)C(=O)c3ccccc32)c(C)c1`, the “hERG current change (%, negative = inhibition) at 10uM” value is reported as 27.9%.

In the case of `CC(=O)O.O=S(=O)(CCc1ccncc1)C1Cc2cccc3cccc1c23` (stereo not drawn), the “hERG current change (%, negative = inhibition) at 10uM” value was -26.9%.

As for `COc1ccc2ccccc2c1CNCc1ccc(C)cc1.O=C(O)C(=O)O`, the “hERG current change (%, negative = inhibition) at 10uM” value is recorded as -69.7%.

`CC1Cc2cc(/C(O)=C3/C(=O)C(=O)N(Cc4ccncc4)C3c3ccc(N(C)C)cc3)ccc2O1` (stereo not drawn): the “hERG current change (%, negative = inhibition) at 10uM” value is 10%.

Regarding `O=C(Nc1ccccc1Cl)c1c(F)c(F)c(F)c(F)c1F`, the “hERG current change (%, negative = inhibition) at 10uM” value is reported as -0.355%.

Turning to `COc1ccc(N(CC(=O)Nc2cccc(C(F)(F)F)c2)S(=O)(=O)c2c(C)[nH]c(=O)[nH]c2=O)cc1`, the “hERG current change (%, negative = inhibition) at 10uM” value was found to be 3.87%.

For `Cc1ccc(C(=O)O)cc1NC(=O)c1cccs1`, the “hERG current change (%, negative = inhibition) at 10uM” value is recorded as 9.1%.

In the case of `O=C(O)c1cc2n(n1)CCN(Cc1ccccc1Cl)C2=O`, the “hERG current change (%, negative = inhibition) at 10uM” value is 8.71%.

Regarding `CN(Cc1ccc(Cl)cc1Cl)C(=O)CNC(=O)c1ccco1`, the “hERG current change (%, negative = inhibition) at 10uM” value is listed as -19%.

Regarding `C(=N\N1CCN(c2ccccn2)CC1)/c1ccco1`, the “hERG current change (%, negative = inhibition) at 10uM” value turned out to be 9.41%.

With `COc1ccc(NC(=O)C(OC(=O)c2cnc(C)cn2)c2ccccc2)cc1Cl` (stereo not drawn), the “hERG current change (%, negative = inhibition) at 10uM” value is recorded as -5.92%.

Turning to `Cc1ccc(-n2ncc3c2CCCC3NC(=O)c2csnn2)cc1C` (stereo not drawn), the “hERG current change (%, negative = inhibition) at 10uM” value was -33.2%.

Turning to `CC(Oc1ccc(Cl)cc1Cl)C(=O)N/N=C1\CCCc2ccccc21` (stereo not drawn), the “hERG current change (%, negative = inhibition) at 10uM” value is -1.49%.

On to `CC(C)[C@@H](C(=O)NC1CCN(Cc2ccccc2)CC1)N1C(=O)N2CCc3c([nH]c4ccccc34)[C@@]2(C)C1=O`, for which the “hERG current change (%, negative = inhibition) at 10uM” value is on record as -74.6%.

On to `O=C(NCCN1C(=O)S/C(=C\c2ccc(Cl)c(Cl)c2)C1=O)C1COc2ccccc2O1` (stereo not drawn), for which the “hERG current change (%, negative = inhibition) at 10uM” value is recorded as -9.28%.

Consider `Cc1oc2cc3oc(=O)c(CCC(=O)NCCN4CCOCC4)c(C)c3cc2c1C`, for which the “hERG current change (%, negative = inhibition) at 10uM” value is reported as -4.78%.

As to `CC(=O)Nc1ccc(C2=NNC(=NCC3CCCO3)SC2)cc1` (stereo not drawn), the “hERG current change (%, negative = inhibition) at 10uM” value turned out to be 12.5%.

`CCOC(=O)c1ccc(N=c2sc(C(=O)OC)cc(=O)n2CCCN2CCOCC2)cc1`: the “hERG current change (%, negative = inhibition) at 10uM” value was -15.9%.

Take `O=Nc1c(O)[nH]c2ccc(F)cc12`: the “hERG current change (%, negative = inhibition) at 10uM” value was 4.06%.

Turning to `NC(=O)NC(=O)COC(=O)/C=C/c1cccs1`, the “hERG current change (%, negative = inhibition) at 10uM” value amounted to 10.7%.
